Laboratory results as given in publication PMC4336329 (PLoS ONE, 2015).
Out of some 310,000 compounds screened, about 2,200 (0.71%) showed an effect of 50% or more. The effect is printed as a negative number. The list shows a part of the results.

These compounds were tested against human ether-à-go-go-related gene (hERG) potassium channel (human, UniProt Q12809) (assay: primary screen, population patch clamp on CHO cells stably expressing hERG).
Chain of human ether-à-go-go-related gene (hERG) potassium channel (Q12809 whole entry, looked up): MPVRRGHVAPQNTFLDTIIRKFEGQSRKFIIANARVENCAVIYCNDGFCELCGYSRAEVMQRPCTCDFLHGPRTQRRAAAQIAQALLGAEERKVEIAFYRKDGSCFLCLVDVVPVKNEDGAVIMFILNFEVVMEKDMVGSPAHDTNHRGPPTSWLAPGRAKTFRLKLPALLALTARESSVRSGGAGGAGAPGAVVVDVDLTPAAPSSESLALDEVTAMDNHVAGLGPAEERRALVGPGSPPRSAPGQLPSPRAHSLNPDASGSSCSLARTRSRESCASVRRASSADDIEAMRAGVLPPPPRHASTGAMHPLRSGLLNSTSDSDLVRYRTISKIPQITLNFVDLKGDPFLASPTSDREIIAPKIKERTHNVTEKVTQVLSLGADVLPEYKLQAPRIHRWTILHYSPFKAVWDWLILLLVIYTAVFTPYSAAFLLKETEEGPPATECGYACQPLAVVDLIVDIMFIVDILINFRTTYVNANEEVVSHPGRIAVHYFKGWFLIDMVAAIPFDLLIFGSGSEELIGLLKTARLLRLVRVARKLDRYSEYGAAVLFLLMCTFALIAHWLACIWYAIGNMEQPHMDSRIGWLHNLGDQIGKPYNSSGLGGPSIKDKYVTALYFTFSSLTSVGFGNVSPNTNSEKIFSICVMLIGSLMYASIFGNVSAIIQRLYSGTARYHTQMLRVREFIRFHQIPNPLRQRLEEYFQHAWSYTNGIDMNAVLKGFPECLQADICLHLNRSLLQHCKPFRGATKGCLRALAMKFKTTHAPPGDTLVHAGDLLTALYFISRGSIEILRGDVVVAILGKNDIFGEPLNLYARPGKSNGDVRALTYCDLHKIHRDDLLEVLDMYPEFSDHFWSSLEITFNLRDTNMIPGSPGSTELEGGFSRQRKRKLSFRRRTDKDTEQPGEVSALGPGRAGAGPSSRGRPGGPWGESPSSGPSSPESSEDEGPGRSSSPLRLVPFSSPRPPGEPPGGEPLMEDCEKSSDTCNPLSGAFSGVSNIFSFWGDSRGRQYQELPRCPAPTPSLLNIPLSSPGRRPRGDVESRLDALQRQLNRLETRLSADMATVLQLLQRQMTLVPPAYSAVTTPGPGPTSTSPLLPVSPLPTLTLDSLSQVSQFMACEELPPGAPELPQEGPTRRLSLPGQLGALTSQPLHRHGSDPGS

| Compound | hERG current change (%, negative = inhibition) at 1uM |
| --- | --- |
| CC(C)(C)C1CCC(OC(=O)CN2CCOCC2)CC1 (centres unmarked) | 7.27% |
| CC1CCN(S(=O)C23CC4CC(CC(C4)C2)C3)CC1 (centres unmarked) | 16.3% |
| N#C/C(=C\C=C\c1ccccc1[N+](=O)[O-])c1nc(-c2ccc3c(c2)OCO3)cs1 | 2.11% |
| CCC(C(=O)OCC(=O)NC1CCS(=O)(=O)C1)c1ccccc1 (centres unmarked) | 3.33% |
| COCCN=C1NN=C(c2cc(C)n(CC3CCCO3)c2C)CS1 (centres unmarked) | 18.2% |
| COc1ccc(CN2C(=O)c3ccccc3C2C(=O)NCC2CCCO2)c(OC)c1 (centres unmarked) | 12.2% |
| CC(=O)NC(=O)NC(C)Cc1ccccc1 (centres unmarked) | 15.9% |
| O=C(NC1CCCC1)c1cc(-c2ccc(Cl)cc2)on1 | 10.9% |
| O=c1cc(-c2ccc(O)cc2)oc2c(O)c(O)c(O)c(O)c12 | 7.06% |
| Cc1cccc(-c2nc(CS(=O)CC(=O)NCCc3ccc(Cl)cc3)c(C)o2)c1 (centres unmarked) | 21.8% |
| O=C(Nc1nc2ccc(Cl)cc2s1)c1ccc(N2CCCCC2)c([N+](=O)[O-])c1 | 16% |
| Cc1nn(Cc2noc(C(=O)NCCCn3ccnc3)n2)c(C)c1Br | 15.3% |
| Cc1cccc(C(=O)NCC(=O)N2CCOCC2)c1 | 11.8% |
| Cl.OCCN(CCO)CC(O)COc1ccc2c(c1)OCO2 (centres unmarked) | 10.3% |
| CCCCSc1ncc(C(=O)OCC)c(N)n1 | 1.47% |
| Cc1cc[n+](-c2[nH]c(=O)sc2/C=N/N=C(\[O-])CCn2c3ccccc3c3ccccc32)cc1 | 12.1% |
| CC1CCCC(C)N1/N=C/c1ccccc1F (centres unmarked) | 11.8% |
| COc1cc(CNCCc2ccccc2F)ccc1OCC(=O)N1CCCCC1.Cl | 12.8% |
| COc1ccc(NS(=O)(=O)c2ccc(C)c(C(=O)N3CC(C)OC(C)C3)c2)cc1 (centres unmarked) | -3.59% |

| Compound | hERG current change (%, negative = inhibition) at 1uM |
| --- | --- |
| CC(C)(C)c1ccc2c(c1)OCC(C(=O)O)O2 (centres unmarked) | 13.3% |
| Cc1cnc(C(=O)NCCc2ccc(S(=O)(=O)NC(=O)NC3CCCCC3)cc2)cn1 | 7.62% |
| CCOC(=O)C1CCN(C(=O)Cn2c(=O)c3cccn3c3cccnc32)CC1 | 11.3% |
| COc1ccc(NC(=O)c2nn(C)c(C(=O)Nc3ccc(OC)cc3)c2[N+](=O)[O-])cc1 | 16.3% |
| CC(C)CNS(=O)(=O)c1ccc(S(=O)(=O)NC2CCOC(C)(C)C2)cc1 (centres unmarked) | 13.1% |
| O=C(Oc1ccc(C(=S)N2CCOCC2)cc1)c1ccc([N+](=O)[O-])cc1 | 14.5% |
| CCn1c(SCC(=O)NCc2ccco2)nc2cccnc21 | 3.54% |
| COc1cccc(/C=N/NC(=O)c2ccc(CN3c4cccc5cccc(c45)S3(=O)=O)cc2)c1 | 4.52% |
| COc1ccc(-c2nonc2NC(=O)c2oc3ccccc3c2C)cc1OC | 1.91% |
| CC1CCc2nc(NC(=O)CN3CCN(c4ccc(F)cc4)CC3)sc2C1 (centres unmarked) | 13.5% |
| CCOc1ccc2cc(C#N)c(SCC(=O)N3CCOCC3)nc2c1 | 16.9% |
| COc1ccc(NC(=O)CSc2nc3ccsc3c(=O)n2CCCCCC(=O)O)cc1 | 6.65% |
| Cc1cc(NC(=O)c2ccc(NC(=O)c3cccs3)cc2)no1 | -1.25% |
| O=c1cc(O)nc2n1CCCS2 | 14.6% |
| CC(CN1CCN(C)CC1)OC(=O)c1ccccc1Cl (centres unmarked) | 5.36% |
| CCOC(=O)N1CCC(NC(=O)C2=CCN(S(=O)(=O)c3ccc(F)cc3)CC2)CC1 | 5.63% |
| CCN(CC)CCN1C(=O)C(O)=C(C(=O)c2cc3cccc(OC)c3o2)C1c1ccc(F)cc1 (centres unmarked) | 17.1% |
| CC(=O)c1ccccc1OCc1ccc(S(=O)(=O)Cc2ccccc2)cc1 | 9.23% |
| CCOCc1nnc(NS(C)(=O)=O)s1 | 7.92% |

| Compound | hERG current change (%, negative = inhibition) at 1uM |
| --- | --- |
| Cc1ccc(-c2cc(-c3ccccc3)c(C#N)c(Br)n2)cc1 | 2.12% |
| O=C(Nc1cccc(Cl)c1N1CCCCC1)c1ccc(N2CCOCC2)c([N+](=O)[O-])c1 | 1.24% |
| COc1cccc(NC(=O)NC2CC(=O)N(c3ccc4c(c3)OCCO4)C2)c1 (centres unmarked) | 1.62% |
| O=C(NNC(=O)c1ccc(F)c(S(=O)(=O)N2CCOCC2)c1)c1ccc([N+](=O)[O-])cc1 | -12.1% |
| CCC(C)[C@H](NC(=O)[C@@H]1CSC2c3ccccc3C(=O)N21)C(=O)NCc1ccncc1 (some centres unmarked) | 5.04% |
| COc1cccc(-c2nn(Cc3ccccc3)cc2C(=O)O)c1 | 11.9% |
| COC(=O)N/N=C/c1cc([N+](=O)[O-])cc(Br)c1O | 31.9% |
| COc1ccc(N(CC(=O)Nc2ccccc2C(=O)N2CCCC2)S(=O)(=O)c2ccccc2)cc1 | -6.9% |
| COc1ccc(N2CCN(c3nccs3)CC2)cc1 | 13.8% |
| O=[N+]([O-])c1ccc(OCCn2cnc3ccccc32)cc1 | -3.95% |
| CC(C)CN(C(=O)CCCOc1ccc(Cl)cc1Cl)c1c(N)n(Cc2ccccc2)c(=O)[nH]c1=O | 1.36% |
| CCCN(CC(=O)Nc1cc(C)on1)S(=O)(=O)c1cccc(C(F)(F)F)c1 | 11.3% |
| Cc1ccccc1Nc1nc(N)c2ccccc2n1.Cl | 13.7% |
| O=C(Nc1cc(C(F)(F)F)ccc1-n1cncn1)c1ccc([N+](=O)[O-])o1 | 0.813% |
| O=C(CN1C(=O)NC2(CCCC2)C1=O)N1CCN(S(=O)(=O)c2ccccc2)CC1 | 12.9% |
| CC(CCc1ccc(O)cc1)N(C)CCc1ccccc1 (centres unmarked) | -37.4% |
| O=C(COC(=O)C1CCC1)Nc1ncc(Cl)cc1Cl | 8.4% |
| COc1ccc(CCNC(=O)Cn2cc(C(F)(F)F)cc(Cl)c2=O)cc1 | -0.219% |
